# Measured values published in the supplement of paper PMC4166925.
# ± gives the standard deviation of the averaged measurements. The full ranking holds about 33,000 sequences; the median of “E-score (dimensionless, -0.5 to 0.5)” is about -0.049, and the highest 2% start at about 0.37. The list shows a part of the results.
# Test system: T1, PmTbr T-box DNA-binding domain (GST fusion)
# T1 sequence: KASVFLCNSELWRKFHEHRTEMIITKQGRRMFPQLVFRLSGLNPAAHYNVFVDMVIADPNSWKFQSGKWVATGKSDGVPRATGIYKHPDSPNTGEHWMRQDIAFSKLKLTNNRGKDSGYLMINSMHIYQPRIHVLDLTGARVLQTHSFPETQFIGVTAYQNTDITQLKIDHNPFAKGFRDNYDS
# Assay: PBM E-score of 8-mer (E-score (dimensionless, -0.5 to 0.5)); Tbr is Tbrain of the sea star Patiria miniata (Pm) or the sea urchin Strongylocentrotus purpuratus (Sp); higher = stronger binding preference; most listed sequences are background and not binding sites
# Conditions: the construct has about 5 more residues each side
# Description: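 Universal protein-binding microarray (Agilent AMADID 016060, 60-bp probes with a 35-bp variable region) incubated with 200 nM GST-fused Patiria miniata Tbr T-box DNA-binding domain (residues 272-466) in PBS pH 7.5. Scored for every ungapped 8-mer (given with its reverse complement) by the Universal PBM Analysis Suite as E-score (modified Wilcoxon-Mann-Whitney enrichment, range -0.5 to 0.5; >0.45 counts as bound) and Z-score of median probe intensity. Two replicate arrays (datasets 1 and 2).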
# 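Further: 200 nM protein in PBS on universal arrays averaged over duplicate arrays.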
row,Sequence,PBM E-score of 8-mer
1,ACCTCACG,0.269 ± 0.038
2,GGTATCGA,0.0352 ± 0.024
3,CTAATGCC,0.118 ± 0.048
4,AGAGGATG,0.0588 ± 0.029
5,AACACAGG,0.0564 ± 0.018
6,CGTGAACC,0.229 ± 0.044
7,CTTCGGTA,-0.146 ± 0.048
8,AGTTCGAA,-0.211 ± 0.039
9,GTAACAAA,0.107 ± 0.021
10,CACTGACC,-0.0204 ± 0.064
11,CTCTCAAC,0.0948 ± 0.01
12,GCCTCTTA,-0.0658 ± 0.019
13,AGGCTAAG,-0.143 ± 0.082
14,CGATTACC,-0.0566 ± 0.046
15,AGACAAAT,-0.0765 ± 0.0098
16,CTTCGCTA,0.0621 ± 0.035
17,TCAGAGAA,-0.0818 ± 0.027
18,CATATAAG,-0.0999 ± 0.03
19,ACCGTATC,-0.0999 ± 0.068
20,CTTCATAA,0.015 ± 0.055
21,AATACCGC,0.00922 ± 0.035
22,CCACTAGG,-0.112 ± 0.044
23,CATTGACC,-0.161 ± 0.099
24,ACTTCCAT,0.0717 ± 0.077
25,GGGTCCTA,-0.208 ± 0.049

row,Sequence,PBM E-score of 8-mer
1,GGTCGCAC,0.373 ± 0.018
2,CGACAACA,0.274 ± 0.023
3,ATTTTCCA,0.0388 ± 0.093
4,GCTGTGCC,0.148 ± 0.03
5,CCAATAAG,-0.115 ± 0.033
6,GAGCTACC,-0.0818 ± 0.12
7,GAGAAGCC,-0.134 ± 0.014
8,TGCCCGAA,-0.112 ± 0.12
9,GTATCCGA,-0.227 ± 0.015
10,CCACGGAA,-0.116 ± 0.063
11,GAAGTCGC,0.167 ± 0.015
12,ACGCCTTA,0.3106 ± 0.0022
13,CGTCAGTA,0.0359 ± 0.018
14,AAAACGAG,-0.213 ± 0.052
15,CCGGCGAG,-0.0425 ± 0.019
16,GAGGGAGC,-0.0495 ± 0.077
17,AGGTTTAA,-0.0552 ± 0.0037
18,TGATATAA,0.104 ± 0.029
19,ATCCCCTG,-0.119 ± 0.089
20,ACTGCTTG,-0.144 ± 0.052
21,ACTACAGA,-0.0956 ± 0.069
22,GTCATCAC,0.2787 ± 0.00098
23,GCCTCTCC,-0.183 ± 0.0065
24,AATATTAG,0.0424 ± 0.036
25,ATCGCGCA,0.119 ± 0.0083

row,Sequence,PBM E-score of 8-mer
1,GAACACAA,0.00999 ± 0.046
2,AAGCCATC,-0.164 ± 0.047
3,ATGCTGAA,-0.23181 ± 2.8e-05
4,CAGCCGAC,0.00225 ± 0.012
5,ATTAGTTA,-0.178 ± 0.053
6,CACGTCCA,0.131 ± 0.039
7,AGACCTGA,-0.102 ± 0.055
8,TCCTTAGA,-0.289 ± 0.043
9,AGACTATC,-0.0496 ± 0.00072
10,ATTCAGTG,0.0227 ± 0.023
11,TAGGGAGA,-0.156 ± 0.022
12,AGGCGTGC,0.158 ± 0.011
13,ACAGTAGG,-0.0261 ± 0.0057
14,AGCGCACG,0.0955 ± 0.067
15,AACACTGA,0.182 ± 0.069
16,GCAGAGCC,0.0176 ± 0.016
17,CTATTGCC,-0.254 ± 0.0039
18,AACTCATC,-0.12 ± 0.053
19,GGGCTAAC,0.0916 ± 0.0092
20,CGGCGTGC,-0.0675 ± 0.043
21,AGAATCAA,-0.109 ± 0.1
22,AACGGAAG,-0.135 ± 0.088
23,CCGTTCAA,-0.12 ± 0.032
24,GTAATCCA,-0.117 ± 0.021
25,CACGCTAG,0.0508 ± 0.031

row,Sequence,PBM E-score of 8-mer
1,CCGAAACC,-0.24 ± 0.0048
2,ACTCCATG,-0.0836 ± 0.065
3,GTGCTACA,0.216 ± 0.008
4,GGATCCCC,-0.0056 ± 0.027
5,CATCTGCA,-0.187 ± 0.045
6,CTTGGCCC,-0.22 ± 0.073
7,AGCTTGTG,0.143 ± 0.005
8,GTTGCCCA,-0.217 ± 0.0084
9,TTCGAAAA,-0.215 ± 0.038
10,ATTTAGCA,0.308 ± 0.04
11,TAGCAGAA,-0.117 ± 0.1
12,AGGATGAG,-0.0868 ± 0.03
13,AGGGAGAC,-0.221 ± 0.0058
14,CCTCTGGC,-0.0366 ± 0.16
15,ACGTGGAA,-0.0444 ± 0.09
16,AAGTAGTA,-0.0335 ± 0.018
17,ATACTCCC,-0.231 ± 0.014
18,CGCGAATC,0.349 ± 0.013
19,ACCAAGAA,-0.0879 ± 0.0044
20,CAATGAAG,0.0359 ± 0.053
21,AATAGTAT,-0.0339 ± 0.063
22,ATGGGGCC,-0.131 ± 0.058
23,AACAGAGA,-0.0359 ± 0.0044
24,CTATGTTC,-0.1107 ± 0.00022
25,CCATCAAC,0.0186 ± 0.048

row,Sequence,PBM E-score of 8-mer
1,AGACCACT,-0.234 ± 0.093
2,AATAAGTC,-0.0952 ± 0.073
3,GCCAGCGA,0.0801 ± 0.013
4,AACTTATT,-0.181 ± 0.039
5,AACGGTTA,0.0723 ± 0.092
6,ACACTAGC,0.204 ± 0.018
7,CGGACACG,0.187 ± 0.0075
8,AACTGTAG,-0.00946 ± 0.017
9,AAGTATCC,-0.128 ± 0.069
10,CGGGGGTC,-0.203 ± 0.0094
11,AAATACAA,-0.267 ± 0.06
12,GCCTGTAC,-0.194 ± 0.036
13,CACTTCGC,0.369 ± 0.014
14,CATGAAAA,-0.257 ± 0.055
15,GGGAACCC,-0.0946 ± 0.0084
16,CCGGCTCG,-0.286 ± 0.035
17,CGACGAGA,0.118 ± 0.022
18,TACATCAA,-0.2435 ± 0.0014
19,CCGACTCG,-0.0676 ± 0.02
20,AGATTTGG,-0.0243 ± 0.012
21,CACAACCA,0.151 ± 0.068
22,GAGTGGGC,-0.156 ± 0.07
23,AATTCTGC,0.0123 ± 0.029
24,AAGCGGCG,0.000685 ± 0.032
25,CTAGTCAA,-0.0553 ± 0.034

row,Sequence,PBM E-score of 8-mer
1,GGGTAGAC,-0.163 ± 0.012
2,CGGCCAAG,-0.0187 ± 0.09
3,ACCATGAT,0.0699 ± 0.037
4,TTGGCAAA,0.134 ± 0.012
5,TAATGGCA,0.0707 ± 0.024
6,CTCTTGCA,-0.12 ± 0.023
7,ATCTCACC,0.409 ± 0.0061
8,ACCTTGAC,0.319 ± 0.045
9,ACATCCTC,0.153 ± 0.036
10,CGCTCGCC,0.00704 ± 0.024
11,CTCCGCGA,0.219 ± 0.0075
12,AGTCTCCA,-0.191 ± 0.025
13,GGTGTGTA,0.341 ± 0.013
14,GCTCAAGA,-0.114 ± 0.0041
15,CTGTATTC,-0.0466 ± 0.024
16,CCATTGCC,-0.0332 ± 0.013
17,CCGAATCC,-0.201 ± 0.01
18,CCGATGAG,-0.275 ± 0.033
19,ACGCTAAT,0.114 ± 0.018
20,CAGGACGG,-0.224 ± 0.018
21,ACAGTGCT,-0.0609 ± 0.0039
22,ATCTCAAT,-0.0703 ± 0.055
23,AGTCACTG,-0.125 ± 0.055
24,CTCCTTAA,-0.0466 ± 0.0025
25,GGCTGGAC,-0.233 ± 0.016

row,Sequence,PBM E-score of 8-mer
1,ATTTAAAC,-0.0947 ± 0.12
2,ACGAACTC,0.0164 ± 0.041
3,ATATGTCG,0.134 ± 0.029
4,AATATACA,-0.199 ± 0.034
5,CGTGTTCA,0.0211 ± 0.032
6,GGTGGTGA,0.294 ± 0.042
7,TAACCTTA,-0.0986 ± 0.065
8,CACTCACC,0.295 ± 0.04
9,AAGGCTCT,-0.227 ± 0.0089
10,AGTCCCCC,-0.123 ± 0.034
11,AGAAGAAT,-0.138 ± 0.095
12,ATGTCCCC,-0.139 ± 0.0077
13,ATTACTTC,-0.201 ± 0.065
14,CCTTTGGA,-0.044 ± 0.011
15,CTCTTAAA,-0.0992 ± 0.023
16,CTTATATC,-0.0871 ± 0.07
17,AGGATAGA,-0.1812 ± 0.0017
18,AGATCCCC,-0.158 ± 0.02
19,CCTAATCA,0.0346 ± 0.0071
20,AGCCCATG,-0.105 ± 0.042
21,AGTCTCGG,-0.164 ± 0.057
22,ATGGCATA,-0.133 ± 0.013
23,CGACTATA,-0.153 ± 0.056
24,AGCCCTAA,-0.161 ± 0.044
25,ACACACGA,0.0245 ± 0.0067

row,Sequence,PBM E-score of 8-mer
1,CTATCCAC,-0.0558 ± 0.1
2,ACTGGATC,-0.145 ± 0.07
3,ATACTGCA,-0.0781 ± 0.055
4,CGCCACTC,0.226 ± 0.0046
5,CAGATCAG,-0.0487 ± 0.023
6,AAAGCGCC,-0.0541 ± 0.027
7,AAATGAAT,-0.218 ± 0.048
8,AGATAATA,-0.0641 ± 0.035
9,CGTTCCTA,-0.0122 ± 0.086
10,AGAGAAAT,0.0644 ± 0.032
11,AAACGTGG,0.0598 ± 0.0041
12,GAGGTGCA,0.367 ± 0.0099
13,GCTCCTAA,-0.108 ± 0.0091
14,AGGATCCC,-0.0401 ± 0.0023
15,GGTCAAAC,-0.162 ± 0.042
16,CCCTCGCA,0.163 ± 0.024
17,GCAACTGA,0.12 ± 0.0076
18,GCTCAGAA,-0.216 ± 0.054
19,GTCGGAAC,-0.139 ± 0.014
20,ACACGCAG,0.198 ± 0.042
21,GGGATAAA,-0.0387 ± 0.029
22,ACTTTAAG,0.00731 ± 0.087
23,CCTTTTGC,0.0403 ± 0.052
24,GCATCCGC,-0.0652 ± 0.048
25,ACGCCTGC,0.24 ± 0.0036

row,Sequence,PBM E-score of 8-mer
1,ATCGGCCC,-0.338 ± 0.011
2,AAACAGAA,-0.0563 ± 0.0088
3,CCTCACTA,0.0838 ± 0.004
4,TATTAGGA,-0.186 ± 0.02
5,CTTCCAGA,-0.274 ± 0.11
6,CGGCGTAA,-0.126 ± 0.0027
7,CTCATACA,0.0245 ± 0.04
8,AATTCCAA,-0.0744 ± 0.062
9,GCATGTGA,0.182 ± 0.024
10,GTCGCATA,0.111 ± 0.033
11,GACATGCA,-0.00971 ± 0.037
12,ATGGGTCG,-0.0966 ± 0.029
13,CGACAGCA,0.0457 ± 0.066
14,CGACCTTC,0.0966 ± 0.04
15,AGGCCTTC,-0.118 ± 0.01
16,ACCTGAGT,0.0149 ± 0.011
17,AGATACAG,-0.184 ± 0.0075
18,ACTGGCAG,0.0702 ± 0.038
19,GATCTCGA,0.0328 ± 0.028
